# Data as given in the supplement of paper PMC11417369.
# The list shows a part of the results.
# Test system: PF3D7_0420300 AP2 domain 1 (GST-tagged)
# Test: gcPBM binding intensity (ln(normalized median fluorescence intensity)); higher = stronger DNA binding
# Summary of the method: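 Binding intensity is the highest Masliner-normalised natural-log median intensity over replicate spots in either probe orientation. To obtain it, GST-tagged P. falciparum DNA-binding domains made in E. coli were incubated for 1 h on an Agilent 4 × 180k array of primer-extended double-stranded 36-bp intergenic genomic probes plus negative controls. Detection used Alexa488 anti-GST antibody with scanning at 488 nm.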
row,Sequence,gcPBM binding intensity (ln)
1,ATAAAGAAAAATAGAAGTACATATATGCATGTTAAT [XGTACX_site4480],9.48
2,AACAATAAAAATAATTGTACAAGTCTAAAAAAAATT [XGTACX_site20],9.37
3,CAAAAACATACCTACACACACAATATGTATATATAA [CACACA_site3514],9.93
4,TGATAACCAAAAAGGGGTACATACACAAAAAAATAC [XGTACX_site1254],9.72
5,AACAACATTTGATAAACACACAGAAGTATAAATATA [CACACA_site5327],9.61
6,TACTTATTAGACTATTGTACATACATTATTAATATT [XGTACX_site7849],9.32
7,TAAAAAATTAAGCAACGTACAAATGAAAAGTATAAT [XGTACX_site1058],9.78
8,TTATGAAAATATTTTTTTCGTTTGATGTATATGTTT [CACACA_negctrl_site1556],9.25
9,AAAAAATATAAATATGTAAAAAGAGAAAAAAAAAAG [GTGCAC_negctrl_site9],9.47
10,ATATTTAATTCATCATGTACACAAATAAGAAACAAA [XGTACX_site8076],9.32
11,TATAAACATAAAACCAGTACATATATATTTTTCTTC [XGTACX_site212],9.39
12,TGAAAATGGGAACCGTGTACAGGGCAGTTATAGGGG [XGTACX_site2950],9.62
13,AAAATATAGTAACACATACACACATATATATTTATA [CACACA_site2504],9.79
14,AAATTGAAATATTCCTGTACACATTTTGAAAACTTA [XGTACX_site6101],9.18
15,TTGTTATGTTTTATTTGTACGTAGGTTTCTATCAAA [XGTACX_site7636],9.41
16,TATTAAACTAAATGTAGTACATACACAAAAGAAACC [XGTACX_site606],9.75
17,TGTTTGAATATAATCACACATTTATATAAAAAGTTA [CACACA_site5237],9.04
18,TCTTTTTGCATGTGTGTGCGCACAAAATACACAAAA [GTGCAC_site9718],9.42
19,ATATATTTAAAAAAATGTACAAATCATAAATGCAAG [XGTACX_site4230],9.29
20,TATAATGTTGATGATAGTACGTATGAGTTCAAAAAA [XGTACX_site3651],9.14
21,AAAAAATTATACCAGTGTACTTTTTTGGTTTTTCTT [XGTACX_site2601],9.47
22,AGAAATTAAATGTAAGCACACATAAATTATACACAT [CACACA_site9098],9.64
23,AAAAGAATTAATTTATGTACTAATTTCAAGAAATAA [XGTACX_site3241],8.98
24,ATATATTATCAACTTACACACAGAAAACTATAATAA [CACACA_site6275],9.71
25,CTTTTTCCTTTATAAAGTACTTAAAATATTTAGATA [XGTACX_site4259],9
